The full ranking holds about 33,000 sequences; the median of “E-score (-0.5 to 0.5)” is about -0.012, and the highest 2% start at about 0.27. The list shows a part of the results.
Molecular target: T1, Vhr1 (UniProt P40522)
T1 sequence: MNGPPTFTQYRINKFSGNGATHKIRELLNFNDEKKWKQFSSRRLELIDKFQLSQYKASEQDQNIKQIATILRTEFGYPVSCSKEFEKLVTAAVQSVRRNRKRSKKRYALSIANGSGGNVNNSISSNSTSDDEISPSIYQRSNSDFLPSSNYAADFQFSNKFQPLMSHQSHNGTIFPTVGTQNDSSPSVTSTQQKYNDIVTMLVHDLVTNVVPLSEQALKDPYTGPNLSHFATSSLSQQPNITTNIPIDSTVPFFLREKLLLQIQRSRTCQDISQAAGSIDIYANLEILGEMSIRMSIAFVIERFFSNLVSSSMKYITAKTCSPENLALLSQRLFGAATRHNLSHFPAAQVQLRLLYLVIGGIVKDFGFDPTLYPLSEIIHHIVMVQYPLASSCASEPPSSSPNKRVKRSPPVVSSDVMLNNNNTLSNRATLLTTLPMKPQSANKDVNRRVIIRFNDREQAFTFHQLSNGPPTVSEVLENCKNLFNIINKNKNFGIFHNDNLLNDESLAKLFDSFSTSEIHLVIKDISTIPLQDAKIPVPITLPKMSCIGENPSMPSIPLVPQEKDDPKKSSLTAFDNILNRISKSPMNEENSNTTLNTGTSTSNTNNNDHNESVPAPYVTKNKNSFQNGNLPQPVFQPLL
Assay: PBM E-score (8-mer binding enrichment) (E-score (-0.5 to 0.5)); higher = stronger / more preferred TF binding; most listed sequences are background and not binding sites
Details: protein concentration: 200 nM; construct: GST-full length
Procedure, shortened: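 For each ungapped eight-base word taken together with its reverse complement, the Universal PBM Analysis Suite assigned an E-score. Binding data came from GST-tagged yeast transcription factors, applied at about 100-200 nM, on universal all-10-mer Agilent arrays made double-stranded by primer extension. Fluorescent anti-GST marked bound protein, and scans were normalised with masliner.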

| Sequence | PBM E-score |
| --- | --- |
| CCCTACCG | 0.122 |
| CATACTGC | 0.0888 |
| CAGGCGGG | 0.122 |
| CAAGAATA | 0.037 |
| ATCTACGC | 0.147 |
| CTTCGAAA | -0.164 |
| AAGTGAGG | -0.0839 |
| ACAGTCAT | 0.318 |
| AACAGTCA | 0.192 |
| ACCGCTCC | -0.0967 |
| CGGTAACC | 0.104 |
| AGTGGCAC | -0.1 |
| GTTCAAAC | -0.0829 |
| ATGAAGAG | -0.0404 |
| AAACAGGC | -0.132 |
| GGAGAGAA | 0.00992 |
| AAGAACAA | 0.0412 |
| ATGGTACC | -0.0842 |
| GAACCTGC | -0.0491 |
| AAGCCGTC | 0.0457 |
| ACTGTCAT | 0.173 |
| AGATTTAC | -0.0587 |
| ATGGAAGG | -0.187 |
| GATCCGTA | 0.0828 |
| CCTTGAGC | -0.213 |

| Sequence | PBM E-score |
| --- | --- |
| CTTCGATC | -0.0957 |
| TGCACACA | 0.123 |
| CACAACGG | -0.111 |
| CATGGCCG | 0.0355 |
| CGGCGAAA | 0.0392 |
| AATCTTAA | -0.258 |
| CGGGCTGA | 0.104 |
| AGACTTAA | -0.336 |
| AGAAATAA | -0.13 |
| AATGGTGA | 0.157 |
| GCCATAGA | -0.0613 |
| GTGGGCTA | 0.0247 |
| AGAAGTCG | -0.0261 |
| CATGTCTA | 0.0965 |
| ACATGCAT | 0.12 |
| CCCACCGG | 0.1 |
| GTGGATGA | 0.263 |
| ATCCGGAG | 0.0204 |
| CGCCTGTA | -0.197 |
| AATAAATG | 0.0572 |
| AAACAATG | 0.044 |
| CAGCCTGA | 0.0687 |
| CCCATAAA | -0.0702 |
| ACTTTTAC | -0.038 |
| GTCAGAGA | 0.00426 |

| Sequence | PBM E-score |
| --- | --- |
| TTATGGAA | -0.114 |
| ATGCAAAC | -0.0414 |
| ATTGACGA | 0.0386 |
| TACGCTGA | 0.0554 |
| AGCACGGC | -0.0184 |
| ACAGGAGT | 0.0766 |
| GAGTCCCC | 0.201 |
| ATCCAATC | 0.0693 |
| ACTTAGAA | -0.237 |
| AGCCCCGA | -0.108 |
| ATCATAAG | 0.00259 |
| TAGGCCAA | -0.18 |
| GAGCAGGC | 0.0109 |
| AAAGTATT | 0.0561 |
| CGGTGTAA | 0.00145 |
| CACGCGCC | 0.122 |
| GGTATAGA | -0.205 |
| GTGGGTAA | 0.138 |
| ACTGAAGT | -0.0457 |
| GACAGGCA | -0.0241 |
| ATTCGATC | 0.0807 |
| GATGCTTA | -0.217 |
| AGTCAACC | 0.373 |
| GGCTGCAC | -0.0516 |
| GGCATTAA | -0.214 |

| Sequence | PBM E-score |
| --- | --- |
| AAGTATCT | -0.184 |
| GCGCAGAA | 0.0192 |
| CGTAGGAG | -0.143 |
| ACTGGTCC | -0.00045 |
| CACGTCAG | 0.0341 |
| ATAACTAA | 0.0665 |
| ATGTTTAC | 0.152 |
| AAACCTTG | 0.068 |
| TCCATCAA | 0.198 |
| GGAGGTGA | 0.165 |
| GAACAGAC | 0.161 |
| GTTGGGAA | -0.111 |
| GGGATATA | 0.189 |
| AGCCGGGC | -0.114 |
| CGCTCAAC | -0.0713 |
| ACATTCGA | 0.0492 |
| ATAATAAT | -0.0529 |
| AGCAGGAT | 0.111 |
| ACCCCCGC | -0.0906 |
| TACAGTGA | 0.0892 |
| AGCAAGGC | 0.0254 |
| CCAATCGC | 0.0862 |
| ACCCTTGG | -0.128 |
| TCCAGCCA | -0.153 |
| TGCAGGCA | -0.141 |

| Sequence | PBM E-score |
| --- | --- |
| AGATGCTA | 0.0826 |
| ACACGTGG | 0.1 |
| AAATGCAT | 0.0418 |
| ATGACAGG | 0.0147 |
| CTGTCGGA | 0.0147 |
| GGCATAAC | -0.164 |
| AACATGGG | 0.269 |
| ACAAGTCA | 0.174 |
| CGAAACAC | 0.0131 |
| GACTTCCC | -0.0666 |
| GCTCGACA | -0.151 |
| CAGGCCTC | -0.225 |
| CACGATTC | 0.158 |
| AACAAGGC | 0.127 |
| CGCATAAC | -0.102 |
| ATTACGTC | -0.0362 |
| AACTTGCT | -0.062 |
| TATTCCGA | -0.00686 |
| ACCTGGAG | 0.0423 |
| TACTGCAA | -0.0559 |
| ATCACGGC | 0.0841 |
| GTTCCTGA | -0.0981 |
| AGTGACGC | -0.138 |
| AATATGAT | 0.264 |
| CGCTTTTA | -0.178 |

| Sequence | PBM E-score |
| --- | --- |
| ACGATCGA | -0.0296 |
| AGTGCAGC | -0.0479 |
| AACCACTA | -0.105 |
| GCTTAACC | -0.159 |
| GGACGGGA | -0.214 |
| GAGTAAGA | 0.0795 |
| CCGTCTCG | 0.00454 |
| GTGCCGGA | 0.165 |
| CTAGAGGC | -0.341 |
| AACACCTC | -0.217 |
| CGCATCGA | 0.0906 |
| AGCCAGCT | -0.0236 |
| TATCACCA | 0.0885 |
| GGTACAAA | -0.136 |
| CTCGATGA | 0.128 |
| AATTGCCA | -0.0675 |
| CCATAGCG | -0.117 |
| ATTGTCCG | 0.0939 |
| CATGAGCC | 0.159 |
| AATCACTA | 0.267 |
| ATTGGGGA | 0.108 |
| CGCAGTAG | -0.029 |
| AGCCTTCA | -0.116 |
| CTAGTGAC | 0.109 |
| TGCAGCCA | 0.0682 |

| Sequence | PBM E-score |
| --- | --- |
| CTCGCCCA | 0.0647 |
| TAAAGCAA | -0.0681 |
| CATTGCAA | -0.114 |
| AATGCCGT | 0.0908 |
| AGGACGAA | -0.106 |
| CAGACAGG | -0.0919 |
| GGCGATCA | -0.0343 |
| AGATTGGA | -0.0483 |
| CCTATACC | -0.122 |
| CGCCAAAC | -0.00831 |
| GAACCTAA | -0.105 |
| GGAGGGAA | -0.0491 |
| CCGATATC | 0.0472 |
| AAGGGCTG | -0.276 |
| GAAGATGC | -0.105 |
| AATACAAA | 0.221 |
| ACGCGGTG | 0.0699 |
| TACACGCA | -0.11 |
| TAAGCCAA | -0.088 |
| ACACAATA | 0.00792 |
| GACAGTGA | 0.0962 |
| TACGGACA | 0.0812 |
| AGAATGTC | -0.081 |
| ATCTTGTA | -0.0208 |
| AGCCTCTG | -0.00921 |

| Sequence | PBM E-score |
| --- | --- |
| GATCTAGA | -0.174 |
| ACATCCAT | 0.164 |
| AACTAAGA | 0.019 |
| CCCAAAGA | -0.0649 |
| CAGGTGTC | 0.219 |
| GAAAGCGA | -0.121 |
| AACTGCTA | -0.156 |
| CCTGTTCC | -0.0888 |
| CGTCGCAC | 0.0343 |
| ACGGGATG | 0.0719 |
| CGGTACGC | 0.00824 |
| GGGCAGTA | 0.00681 |
| GGGTCACA | 0.179 |
| GGAGCGAA | -0.1 |
| ATGGCATC | 0.00305 |
| AGATTTCA | -0.0861 |
| TATTAAGA | -0.246 |
| GTATTTGA | -0.0018 |
| ATCTATTC | 0.11 |
| ACCCAGAT | -0.0382 |
| ATAAGTCC | -0.116 |
| GACGTGAC | 0.125 |
| CGGACGTC | 0.107 |
| CGCCATAA | 0.0256 |
| GAGAACAC | -0.0409 |

| Sequence | PBM E-score |
| --- | --- |
| GAACCACA | 0.219 |
| TCGAAGCA | -0.278 |
| ATCACGCC | 0.23 |
| CCTACGCC | -0.238 |
| AGAGCGAG | 0.00159 |
| ACACACCA | 0.282 |
| GTAGACGA | -0.133 |
| TCATAGAA | 0.123 |
| GACGATAC | 0.0425 |
| GAAAGTAC | 0.00181 |
| AGAGCCCC | -0.205 |
| CCACATAC | 0.0501 |
| ACACTTGA | -0.0584 |
| GACCAACA | 0.209 |
| ATAGAAGA | -0.307 |
| ACATAGGT | 0.11 |
| GCATCATA | 0.136 |
| GCAAATGA | -0.141 |
| AATTTGCT | -0.215 |

From the supplement of paper PMC3334620
